Experimental data published in publication PMC7819943, “Rice protein-binding microarrays: a tool to detect cis-acting elements near promoter regions in rice”.
The list shows a part of the results.

target: T1, OsWOX13 (Oryza sativa, UniProt Q5QMM3 1-267); test: protein-binding microarray (RPBM); PBS, 2% BSA, 51.3 ng/ul salmon testes DNA, 50 uM zinc acetate, 200 nM TF, 25 C, 1 h; high values mean tight binding; details: protein: recombinant; tags: N-terminal polyhistidine and DsRed monomer fusion (pET32a); label: CyDye5-dUTP incorporated in the synthesized complementary strand; 3' TTTTT single-stranded linker to array surface; dsDNA, one strand shown
T1 sequence: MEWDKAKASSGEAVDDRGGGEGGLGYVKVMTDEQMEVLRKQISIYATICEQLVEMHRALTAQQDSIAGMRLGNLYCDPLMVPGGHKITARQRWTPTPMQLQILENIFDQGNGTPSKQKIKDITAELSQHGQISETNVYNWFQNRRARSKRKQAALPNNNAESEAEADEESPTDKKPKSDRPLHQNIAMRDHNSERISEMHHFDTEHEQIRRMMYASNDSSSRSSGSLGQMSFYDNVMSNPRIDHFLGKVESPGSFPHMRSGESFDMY
Outline: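 A custom Agilent array was converted to double-stranded form by primer extension with Cy5-dUTP and blocked with 2% BSA. Protein at 200 nM in PBS with 2% BSA, salmon testes DNA and 50 µM zinc acetate was applied for 1 h at 25 °C, followed by washing. The proteins were polyhistidine–DsRed N-terminal fusions of transcription factors, expressed in E. coli BL21-CodonPlus and Ni–NTA-purified. The binding signal is per-feature fluorescence intensity (arbitrary units) from an Axon 4000B scanner.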

Sequence	binding signal
CCGCATGATTAATTAAATAATAGTGAAATGAGCGTGGCTCCGGAGTCACCTAGTGCAG	22300 fluorescence intensity (a.u.)
TACTAATTTCTCTCTCTCTCCTCTCATCAGGGTCAGTTTCCGGAGTCACCTAGTGCAG	5390 fluorescence intensity (a.u.)
AATTTAAATATTAAAATTTAATTTTGAAGTTGATTTTAGACGGAGTCACCTAGTGCAG	3340 fluorescence intensity (a.u.)
TTGTGGCTTGATTGATCCGTCCTCGACCCATAGGGGTGGTCGGAGTCACCTAGTGCAG	39100 fluorescence intensity (a.u.)
ATGATTGAATGAATGAAACCCTAGTTTGTTTTGATTTGTACGGAGTCACCTAGTGCAG	54400 fluorescence intensity (a.u.)
TTTATTATTGATGAGCAAATAGGAATCAGATGCAAATACTCGGAGTCACCTAGTGCAG	8910 fluorescence intensity (a.u.)
AATGTTTGTGATTGGCTGAGAGGAGAAGATAGGTAGAAAACGGAGTCACCTAGTGCAG	17800 fluorescence intensity (a.u.)
GTATGGATCACCTGATTAATTGGGCCGTCGTTCCATTCCCCGGAGTCACCTAGTGCAG	9310 fluorescence intensity (a.u.)
CCCTAAATTGGCCTTACCAATATTTGGCAATTTCAATAGTCGGAGTCACCTAGTGCAG	34300 fluorescence intensity (a.u.)
TAGTAACTATAAATCAATGGTTAAGATTTCTTTCAGTCCTCGGAGTCACCTAGTGCAG	9460 fluorescence intensity (a.u.)
TTTAAATCAACTTGGGCAAATTTGATCTGAAATCCACTCACGGAGTCACCTAGTGCAG	4710 fluorescence intensity (a.u.)
TAATCAATCAATCATCCAACCCAGCCAGCGTGATCAGTTTCGGAGTCACCTAGTGCAG	39500 fluorescence intensity (a.u.)
AATAATTAATCAAGCAAAACGAGTAGCTAAGCTAGCTCGTCGGAGTCACCTAGTGCAG	18000 fluorescence intensity (a.u.)
GCTTAAATTAATATACCTGAACCGGCGAGCATTTAAATTTCGGAGTCACCTAGTGCAG	5370 fluorescence intensity (a.u.)
CTCCTTCATCTCTAATCACGCACATGCAACTCACTAGCTCCGGAGTCACCTAGTGCAG	3850 fluorescence intensity (a.u.)
CAACAATGATAAATTTACCCGGTCCAAATTGAAAAGATAGCGGAGTCACCTAGTGCAG	10400 fluorescence intensity (a.u.)
TAATTTAGATGATTTATATTTTAAGATCCGTCATGAGAAACGGAGTCACCTAGTGCAG	6850 fluorescence intensity (a.u.)
TTATTGATGAACAAACTAAAATAATCAAGCTACAGGGACTCGGAGTCACCTAGTGCAG	8030 fluorescence intensity (a.u.)
TGAATTGATGGATTCGGTCTCATGCAGTCAATAGTGTGACCGGAGTCACCTAGTGCAG	26300 fluorescence intensity (a.u.)
TGACTCTTATTTAACGACTGATTGTTGTCAAGATAATGAACGGAGTCACCTAGTGCAG	3770 fluorescence intensity (a.u.)
TAAATTAATTATTAAACACAGCCATTAATGTGCGAGGTACCGGAGTCACCTAGTGCAG	34800 fluorescence intensity (a.u.)

Sequence	binding signal
TTGGCACTACCAAATCAATCAGGTAGTGTTGAATTTGAACCGGAGTCACCTAGTGCAG	3630 fluorescence intensity (a.u.)
ATAATTTGATCAAATTACATGTGATTTTGTGAAATTTACACGGAGTCACCTAGTGCAG	39700 fluorescence intensity (a.u.)
ACAAAATCACATAAAAGATTTATAAATATCTAACCACAGCCGGAGTCACCTAGTGCAG	5960 fluorescence intensity (a.u.)
AAAACATAATTAGCTGCACGCACTACGTACACAAGATCACCGGAGTCACCTAGTGCAG	12300 fluorescence intensity (a.u.)
AGCTGATAGATCATTTTAAGCACGCTGGGCCAAATGGGCACGGAGTCACCTAGTGCAG	21400 fluorescence intensity (a.u.)
CACACTATTAATCATTTTGATTTTGGTATACTGCACTTTTCGGAGTCACCTAGTGCAG	6110 fluorescence intensity (a.u.)
ATAATAAACTATGGGATGATTTCAAATAATACTCAAATCGCGGAGTCACCTAGTGCAG	5300 fluorescence intensity (a.u.)
TCTTAATAAATTTCGGCCGAAGTAACTTTCGTCGGCCTGGCGGAGTCACCTAGTGCAG	3380 fluorescence intensity (a.u.)
CCATTAACTAAAAGACAGCATGATCGCTACAGAGGTTACGCGGAGTCACCTAGTGCAG	3160 fluorescence intensity (a.u.)
TATATATATATATATATATATATATAGCTGGGCGATGAACCGGAGTCACCTAGTGCAG	16300 fluorescence intensity (a.u.)
ATGAATAATGGAAAGATTATGTTAAACCCTCTCCAGATTGCGGAGTCACCTAGTGCAG	9630 fluorescence intensity (a.u.)
CGTGACCGCTTGCTAATTGTTATGCAGTACGTACTACTATCGGAGTCACCTAGTGCAG	9640 fluorescence intensity (a.u.)
ATTTTATAAATTAATTTATAGAATTTAAAATCCGTATTTCCGGAGTCACCTAGTGCAG	17300 fluorescence intensity (a.u.)
GACATTAATTAATTTAAATTAACGCTCACTGTTCATCGCCCGGAGTCACCTAGTGCAG	65500 fluorescence intensity (a.u.)
CTAAAATAATTGGGAGCGAAACTGAAGTTGTAGAATCCGGCGGAGTCACCTAGTGCAG	37900 fluorescence intensity (a.u.)
TCCCTTAAATACCAATTAAATGGTTACAGAAATTCTAAAACGGAGTCACCTAGTGCAG	9190 fluorescence intensity (a.u.)
AATTTTAATTTCTTTTAACAAAATTTATTTGGTGTTCATCCGGAGTCACCTAGTGCAG	10400 fluorescence intensity (a.u.)
CTTTTCAATCAACTTGTTTAGTTTATTGGTTATCCATTTGCGGAGTCACCTAGTGCAG	34400 fluorescence intensity (a.u.)
TTTAACAGACGAAAACAGCTGTTATTGTGTTCTTTGTTGACGGAGTCACCTAGTGCAG	17300 fluorescence intensity (a.u.)
AGGACTAATAGATTTCCAAGATGATCGGGACTGACCGATCCGGAGTCACCTAGTGCAG	10600 fluorescence intensity (a.u.)
AACCTTATGACGAAGTAATCACCAAATTAAGGCCATGCATCGGAGTCACCTAGTGCAG	4160 fluorescence intensity (a.u.)
